Assay results published in publication PMC2172684 (The Journal of Cell Biology, 2003).

T1: GST-tagged Nup358 (996–1963) ( (mammalian), UniProt P49792 996-1963)
T1 sequence (looked up): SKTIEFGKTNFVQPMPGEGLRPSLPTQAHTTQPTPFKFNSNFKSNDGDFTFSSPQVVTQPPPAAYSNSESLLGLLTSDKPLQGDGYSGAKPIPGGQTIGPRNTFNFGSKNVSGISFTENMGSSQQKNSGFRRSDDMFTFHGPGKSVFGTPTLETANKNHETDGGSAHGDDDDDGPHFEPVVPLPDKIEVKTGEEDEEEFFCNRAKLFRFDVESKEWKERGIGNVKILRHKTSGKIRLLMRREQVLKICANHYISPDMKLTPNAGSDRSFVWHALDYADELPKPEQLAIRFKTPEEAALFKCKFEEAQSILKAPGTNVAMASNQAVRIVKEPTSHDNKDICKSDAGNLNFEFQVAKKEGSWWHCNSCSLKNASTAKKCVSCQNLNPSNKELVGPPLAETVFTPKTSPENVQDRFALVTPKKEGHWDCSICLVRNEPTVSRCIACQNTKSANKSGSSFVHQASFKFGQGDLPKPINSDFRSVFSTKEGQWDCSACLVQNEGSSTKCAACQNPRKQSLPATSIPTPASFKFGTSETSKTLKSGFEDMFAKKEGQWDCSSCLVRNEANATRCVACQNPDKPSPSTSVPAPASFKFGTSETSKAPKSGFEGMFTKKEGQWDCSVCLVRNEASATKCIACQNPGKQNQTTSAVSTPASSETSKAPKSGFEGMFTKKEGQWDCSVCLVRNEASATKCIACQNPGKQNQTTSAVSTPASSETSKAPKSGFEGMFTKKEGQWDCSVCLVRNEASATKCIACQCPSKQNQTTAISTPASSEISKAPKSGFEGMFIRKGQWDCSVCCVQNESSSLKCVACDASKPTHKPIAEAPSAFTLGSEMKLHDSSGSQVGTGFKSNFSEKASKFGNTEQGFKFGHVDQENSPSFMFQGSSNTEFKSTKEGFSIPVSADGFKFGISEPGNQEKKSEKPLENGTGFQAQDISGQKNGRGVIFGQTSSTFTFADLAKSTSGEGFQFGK

B1: importin β I178A (natural protein)
chain: not shown
B2: importin β E214A (natural protein)
chain: not shown
B3: importin β I263R (natural protein)
chain: not shown
B4: importin β I178A/E214A (natural protein)
chain: not shown
B5: importin β Y255A (natural protein)
chain: not shown
B6: importin β F217A (natural protein)
chain: not shown
B7: importin β F217A/Y255A (natural protein)
chain: not shown
B8: importin β I178D (natural protein)
chain: not shown
B9: importin β I178D/Y255A (natural protein)
chain: not shown

target: T1, GST-tagged Nup358 (996–1963); test: ELISA

Row | Kd | Binder
1 | 245 ± 34 nM | B1

target: GST–RanGTP (UniProt P62826); test: ELISA

Row | Kd | Binder
2 | 3.1 ± 0.3 nM | B2
3 | 3.9 ± 0.2 nM | B3
4 | 5.1 ± 0.6 nM | B4
5 | 3 ± 0.5 nM | B5
6 | 4.1 ± 0.5 nM | B6
7 | 4.4 ± 0.6 nM | B7
8 | 4.7 ± 0.6 nM | B8
9 | 44.1 ± 6.2 nM | B9
10 | 3.6 ± 0.3 nM | B1
